Hit rate of the full screen: of about 360,000 compounds, about 17,000 (4.7%) were called active. Inconclusive results, whose numbers are uncertain, are shown with a selection of clear calls. No stated cut-off is given here; in the data, active means activity change below about -50%; inconclusive means mostly about -30% to -49%; inactive means weaker than that.
Assay: qHTS for Inhibitors of Inflammasome Signaling: IL-1-beta AlphaLISA Primary Screen
Conditions: THP-1 LPS/ATP IL-1B secretion, 16 h; at 57.5 µM, hits give low values
Outline: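 Secreted IL-1B measured by AlphaLISA bead assay after 16 h compound exposure of THP-1 cells; compounds (final up to 57.5 uM) added 1 h before LPS (250 ng/mL) and ATP (1.25 mM) stimulation; lower signal means less secretion.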
On the % scale 0 is the no-effect control and ±100 the full control effect.

| Structure (SMILES) | activity change |
| --- | --- |
| O=C(CN1C(=O)c2cccc3cccc1c23)N1CCN(c2cccc(Cl)c2)CC1 | inactive: 16.8% |
| C(=C\c1ccccc1)/CN1CCN(C(c2nnnn2Cc2ccccc2)C2CC2)CC1 (stereo unspecified) | inconclusive: -33.7% |
| O=C(CN(CC1CCCO1)C(=O)CCC(=O)Nc1ccccn1)NCc1ccccc1 (stereo unspecified) | inconclusive: -41.2% |
| CCOc1ccc(-n2c(SCC(=O)Nc3ccc(OC)cc3OC)nc3c(c2=O)SCC3)cc1 | inconclusive: -33.4% |
| Cc1cc(C)cc(NC(=O)CN2CCCN(S(=O)(=O)c3ccc(Br)s3)CC2)c1 | inconclusive: -48.2% |
| Oc1ccc(C[C@H]2CNC(=S)N2CC2CCCN2C[C@H](Cc2ccccc2)N2C[C@H](Cc3ccc(O)cc3)N(CC3CCCCC3)C2=S)cc1 (stereo partly specified) | inconclusive: -45% |
| CCOCCCNC(=O)/C(C#N)=C/c1cc(Br)c(O)c(Br)c1 | inconclusive: -35.8% |
| O=C(Cn1cnc2cc([N+](=O)[O-])ccc2c1=O)Nc1ccccc1-c1ccccc1 | inactive: 0% |
| CCc1c(C)nc2ncnn2c1NCCc1ccc(OC)cc1 | inactive: -20.8% |
| O=[N+]([O-])c1cccc(-c2csc(Nc3ccccc3)n2)c1 | active: -105% |
| CC1CN(c2ccc([N+](=O)[O-])cc2Cl)CCN1S(C)(=O)=O (stereo unspecified) | inconclusive: -45.6% |
| COc1ccc(C(CCN(Cc2ccc(OC)c(OC)c2)C(C)=O)c2ccccc2)cc1 (stereo unspecified) | inconclusive: -36.7% |
| Cc1ccn2cc(-c3cccc(NS(C)(=O)=O)c3)nc2c1 | inconclusive: -42.5% |
| Cc1ccc2nc(-c3ccc(N4C(=O)CC(N5CCN(CCO)CC5)C4=O)cc3)sc2c1 (stereo unspecified) | inconclusive: -31.5% |
| Cc1cc(C2(c3ccc(O)c(C)c3)C(=O)Nc3ccccc32)ccc1O | inconclusive: -44.3% |
| Fc1c(F)c(C(F)(F)F)c(F)c(F)c1N/N=C\c1cccs1 | active: -73.7% |
| Cc1ccc(Cn2c(C)c(C(=O)NCc3cccs3)sc2=O)cc1 | inconclusive: -40.4% |
| Cc1ccc(-n2nc3c(N4CCC(C(=O)NCc5ccc(C)o5)CC4)nnc(C)c3c2C)cc1 | inactive: -0.86% |
| C[C@H]1COC[C@@H](C/C=C/c2ccccc2)N1c1ccccc1 | inactive: 45.2% |
| COc1ccc(-n2nc(C(=O)NCC(=O)NCCN(C)C)c3ccccc3c2=O)cc1 | inconclusive: -31.2% |
| COc1ccc(NC(=O)CSCC(=O)N(C)Cc2ccc(Cl)c(Cl)c2)cc1 | inconclusive: -48.2% |
| CC(C)N(C(=O)[C@H]1C[C@H](CC(=O)NCCCn2ccnc2)C(=O)N2CCc3c([nH]c4ccc(Cl)cc34)[C@]12C)C(C)C | inconclusive: -42.2% |
| Cc1cc(OCC(O)CN(C)C(=O)C(C)Oc2ccccc2)ccc1Cl (stereo unspecified) | inactive: 9.4% |
| Nn1c(SCC(=O)N2CCCC2=O)nnc1-c1cccs1 | inactive: 3.67% |
| Cc1ccccc1NC(=O)c1cn(-c2ccccc2)nc1-c1ccccc1 | inconclusive: -30.5% |
| CN(C(=O)/C=C/c1cnc2ccccc2c1)C1CCCCC1 | active: -57.9% |

| Structure (SMILES) | activity change |
| --- | --- |
| CN1C=CC2=C(C#N)C(N)C(C#N)(C#N)C(c3ccccc3)C2C1 (stereo unspecified) | inactive: -13.2% |
| CC(C)(C)C1CCC(=NNc2ccc(S(N)(=O)=O)cc2[N+](=O)[O-])CC1 (stereo unspecified) | active: -87.1% |
| CN1CCC(N(C)C(=O)c2ccc(Cl)c(S(=O)(=O)N3CCc4ccccc43)c2)CC1 | active: -50.1% |
| O=C(CCS(=O)(=O)c1ccc(Cl)cc1)Nc1nc(-c2ccncc2)cs1 | inconclusive: -32.1% |
| CC(C)(C)Nc1c(C2CCNCC2)nc2c(OCc3ccccc3)cccn12 | inconclusive: -44.7% |
| COc1ccc(-c2cn[nH]c2-c2ccc(OCc3ccccc3)cc2O)cc1 | active: -99.3% |
| COc1cc(SC)ccc1C(=O)N1CCN(c2ccccc2)CC1 | active: -80.4% |
| CCOC(=O)c1c(NC(=O)CN(C)C2CCN(C)CC2)sc(C(=O)Nc2ccccc2)c1C | inconclusive: -37.3% |
| Cc1ccc(S(=O)(=O)N(C)C[C@H]2Oc3c(NC(=O)Nc4cccc5ccccc45)cccc3C(=O)N([C@@H](C)CO)C[C@@H]2C)cc1 | inconclusive: -42.6% |
| COc1ccc2c(Cl)c(-c3nnc(SCC(=O)c4ccccc4)n3C)sc2c1 | inconclusive: -41.7% |
| Brc1ccccc1C1CC(c2ccccc2)=Nc2ccccc2N1 (stereo unspecified) | inconclusive: -30.1% |
| COc1ccc(CCNC(=S)c2ccccc2)cc1OC | inconclusive: -32.9% |
| CC(C)Cn1c(=O)c2c(nc3n2CCCN3CCc2ccccc2)n(C)c1=O | inconclusive: -40.2% |
| O=C(CCn1cnc2ccccc2c1=O)Nc1cccc(Cl)c1Cl | inconclusive: -32.5% |
| CN(C)CCNC(=O)c1cccc(NS(=O)(=O)c2ccc(Cl)c(Cl)c2)c1 | inconclusive: -32.9% |
| S=C(NN=C(c1ccccc1)c1ccccn1)N(Cc1ccccn1)Cc1ccccn1 | active: -58.5% |
| CCCCC(=O)N1CCN(c2nc3ccc(F)cc3s2)CC1 | inactive: -2.41% |
| C#Cc1cccc(C(=O)N2CCCC(Nc3cccc(F)c3)C2)c1 (stereo unspecified) | inactive: -15.8% |
| CC(CNC(=O)CCC(=O)N1CCOc2ccc(Cl)cc21)c1ccccc1 (stereo unspecified) | inconclusive: -45.6% |
| N#Cc1nc(N)nc(N(c2ccccc2)c2ccccc2)n1 | inconclusive: -45.2% |
| CC[C@]12c3[nH]c4cc(CCC(=O)N(C)C)ccc4c3CCN1C(=O)[C@@H](CC(=O)NCC13CC4CC(CC(C4)C1)C3)C[C@@H]2C(=O)N1CCN(C(=O)C2CC2)CC1 | inconclusive: -38.2% |
| COCCNC(=O)/C(C#N)=C\c1ccc(CNC(=O)C(=O)Nc2ccc(C)c(C)c2)o1 | inconclusive: -30.4% |
| COC(=O)[C@H]1C[C@H](OC(=O)NCC2CCCCC2)[C@@]2(O)CN(S(=O)(=O)c3ccc(C)cc3)CC2[C@H]1C(=O)OC (stereo partly specified) | inconclusive: -32.2% |
| Cn1c(=O)c(=O)n(C)c2cc(N3CCCCC3)c(NS(=O)(=O)c3ccc(Br)cc3)cc21 | inconclusive: -33.8% |
| COc1ccccc1C(NC(C)=O)c1c(O)ccc2ccc(O)cc12 (stereo unspecified) | inconclusive: -39.8% |

Source: PubChem BioAssay AID743279 (National Center for Advancing Translational Sciences (NCATS), 2014)
